Test results taken from the supplement of paper PMC8728848.
This is one part of a sample in which the strongest signals are shown more often than they occur.

Assays:
Experiment in all cases: glycan array binding signal (z-score within array); higher = stronger binding
Conditions in all cases: glycan notation: IUPAC condensed, linker removed
[1] = molecular target: Fuc(a1-2)Gal(b1-3)GlcNAc(b1-2)Man(a1-3)[Fuc(a1-2)Gal(b1-3)GlcNAc(b1-2)Man(a1-6)]Man(b1-4)GlcNAc(b1-4)[Fuc(a1-6)]GlcNAc
Summary of the method: (§1)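 Glycan array binding is given as a within-array Z-score, which can be read as non-binding when negative. The arrays, 3228 of them, came from the Consortium for Functional Glycomics database and were retained only where the protein sequence was available. Z-scores were averaged across arrays of the same protein sequence at different concentrations or buffers and across linkers.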

[2] = molecular target: Fuc(a1-2)Gal(b1-3)[Fuc(a1-4)]GlcNAc
Summary of the method: as §1

[3] = molecular target: Fuc(a1-2)Gal(b1-3)[Fuc(a1-4)]GlcNAc(b1-3)[Gal(b1-4)GlcNAc(b1-6)]Gal(b1-4)Glc
Summary of the method: as §1

Fuc(a1-2)Gal(b1-4)Glc = molecular target: Fuc(a1-2)Gal(b1-4)Glc
Summary of the method: as §1

[4] = molecular target: Fuc(a1-2)Gal(b1-4)GlcNAc(b1-2)Man(a1-3)[Fuc(a1-2)Gal(b1-4)GlcNAc(b1-2)Man(a1-6)]Man(b1-4)GlcNAc(b1-4)[Fuc(a1-6)]GlcNAc
Summary of the method: as §1

[5] = molecular target: Fuc(a1-2)Gal(b1-4)GlcNAc(b1-3)GalNAc
Summary of the method: as §1

[6] = molecular target: Fuc(a1-2)Gal(b1-4)GlcNAc(b1-3)[Fuc(a1-3)[Gal(b1-4)]GlcNAc(b1-6)]Gal(b1-4)Glc
Summary of the method: as §1

[7] = molecular target: Fuc(a1-2)Gal(b1-4)[Fuc(a1-3)]GlcNAc(b1-2)[Fuc(a1-2)Gal(b1-4)[Fuc(a1-3)]GlcNAc(b1-4)]Man(a1-3)[Fuc(a1-2)Gal(b1-4)[Fuc(a1-3)]GlcNAc(b1-2)Man(a1-6)]Man(b1-4)GlcNAc(b1-4)GlcNAc
Summary of the method: as §1

[8] = molecular target: Fuc(a1-2)Gal(b1-4)[Fuc(a1-3)]GlcNAc(b1-3)GalNAc
Summary of the method: as §1

[9] = molecular target: Fuc(a1-2)[Gal(a1-3)]Gal(b1-3)GalNAc(b1-3)Gal(a1-4)Gal(b1-4)Glc
Summary of the method: as §1

[10] = molecular target: Fuc(a1-2)[Gal(a1-3)]Gal(b1-3)GlcNAc(b1-2)Man(a1-3)[Fuc(a1-2)[Gal(a1-3)]Gal(b1-3)GlcNAc(b1-2)Man(a1-6)]Man(b1-4)GlcNAc(b1-4)[Fuc(a1-6)]GlcNAc
Summary of the method: as §1

[11] = molecular target: Fuc(a1-2)[Gal(a1-3)]Gal(b1-4)GlcNAc(b1-3)[Fuc(a1-2)[Gal(a1-3)]Gal(b1-4)GlcNAc(b1-6)]GalNAc
Summary of the method: as §1

[12] = molecular target: Fuc(a1-2)[Gal(a1-3)]Gal(b1-4)[Fuc(a1-3)]GlcNAc(b1-3)GalNAc
Summary of the method: as §1

[13] = molecular target: Fuc(a1-2)[GalNAc(a1-3)]Gal(b1-3)GlcNAc
Summary of the method: as §1

[14] = molecular target: Gal(a1-3)Gal(b1-3)GlcNAc(b1-6)GalNAc
Summary of the method: as §1

[15] = molecular target: Gal(a1-3)Gal(b1-3)[Fuc(a1-4)]GlcNAc(b1-2)Man(a1-3)[Gal(a1-3)Gal(b1-3)[Fuc(a1-4)]GlcNAc(b1-2)Man(a1-6)]Man(b1-4)GlcNAc(b1-4)GlcNAc
Summary of the method: as §1

Gal(a1-4)GlcNAc = molecular target: Gal(a1-4)GlcNAc
Summary of the method: as §1

Gal(b1-2)Gal = molecular target: Gal(b1-2)Gal
Summary of the method: as §1

[16] = molecular target: Gal(b1-3)GalNAc(a1-3)[Fuc(a1-2)]Gal(b1-4)Glc
Summary of the method: as §1

Gal(b1-3)GalNAc(b1-3)Gal = molecular target: Gal(b1-3)GalNAc(b1-3)Gal
Summary of the method: as §1

[17] = molecular target: Gal(b1-3)GalNAc(b1-4)Gal(b1-4)Glc
Summary of the method: as §1

[18] = molecular target: Gal(b1-3)GlcNAc(b1-2)Man(a1-3)[GlcNAc(b1-4)][Gal(b1-3)GlcNAc(b1-2)Man(a1-6)]Man(b1-4)GlcNAc(b1-4)GlcNAc
Summary of the method: as §1

[19] = molecular target: Gal(b1-3)GlcNAc(b1-3)Gal(b1-4)Glc
Summary of the method: as §1

[20] = molecular target: Gal(b1-3)[Fuc(a1-4)]GlcNAc(b1-2)Man(a1-3)[Gal(b1-3)[Fuc(a1-4)]GlcNAc(b1-2)Man(a1-6)]Man(b1-4)GlcNAc(b1-4)[Fuc(a1-6)]GlcNAc
Summary of the method: as §1

Gal(b1-4)Glc6S = molecular target: Gal(b1-4)Glc6S
Summary of the method: as §1

[21] = molecular target: Gal(b1-4)GlcNAc(b1-2)Man(a1-3)[Gal(b1-4)GlcNAc(b1-2)Man(a1-6)][Gal(b1-4)GlcNAc(b1-4)]Man(b1-4)GlcNAc(b1-4)[Fuc(a1-6)]GlcNAc
Summary of the method: as §1

[22] = molecular target: Gal(b1-4)GlcNAc(b1-3)Gal(b1-4)Glc
Summary of the method: as §1

B1: Avaren-Fc (Actinomycete K97) (protein)
chain: ASGTIRNAETGRCLDSNYNGNVYTLPCNGGNYQRWTGPGDGTVRNAETGRCLDSNYDGAVYTLPCNGGSYQKWTGPGDGTIQNAETGRCLDSNYNGNVYTLPCNGGNYQKWTGGGGSV[in this place human IgG1 Fc with changes]
With B1 as the binder, how does the “glycan array binding signal (z-score)” value [1] read?
Its value is 1.35.

What about the “glycan array binding signal (z-score)” value [2] of the same binder?
The value was -0.173.

And the “glycan array binding signal (z-score)” value [3]?
Its value is -0.169.

And the “glycan array binding signal (z-score)” value (Fuc(a1-2)Gal(b1-4)Glc)?
The value was -0.173.

And the “glycan array binding signal (z-score)” value [4]?
Its value is 2.96.

What about the “glycan array binding signal (z-score)” value [5] of the same binder?
Its value is -0.094.

And the “glycan array binding signal (z-score)” value [6]?
Its value is -0.182.

And the “glycan array binding signal (z-score)” value [7]?
Its value is -0.057.

And the “glycan array binding signal (z-score)” value [8]?
Its value is -0.133.

What about the “glycan array binding signal (z-score)” value [9] of the same binder?
The value was -0.175.

And the “glycan array binding signal (z-score)” value [10]?
The value was 2.27.

And the “glycan array binding signal (z-score)” value [11]?
Its value is -0.103.

And the “glycan array binding signal (z-score)” value [12]?
Its value is -0.157.

And the “glycan array binding signal (z-score)” value [13]?
The value was -0.162.

What about the “glycan array binding signal (z-score)” value [14] of the same binder?
The value was -0.17.

And the “glycan array binding signal (z-score)” value [15]?
The value was 2.13.

And the “glycan array binding signal (z-score)” value (Gal(a1-4)GlcNAc)?
The value was -0.171.

What about the “glycan array binding signal (z-score)” value (Gal(b1-2)Gal) of the same binder?
The value was -0.173.

What about the “glycan array binding signal (z-score)” value [16] of the same binder?
The value was -0.16.

What about the “glycan array binding signal (z-score)” value (Gal(b1-3)GalNAc(b1-3)Gal) of the same binder?
The value was -0.172.

What about the “glycan array binding signal (z-score)” value [17] of the same binder?
The value was -0.171.

And the “glycan array binding signal (z-score)” value [18]?
Its value is 3.43.

What about the “glycan array binding signal (z-score)” value [19] of the same binder?
The value was -0.181.

What about the “glycan array binding signal (z-score)” value [20] of the same binder?
Its value is 4.1.

What about the “glycan array binding signal (z-score)” value (Gal(b1-4)Glc6S) of the same binder?
The value was -0.171.

And the “glycan array binding signal (z-score)” value [21]?
Its value is -0.182.

What about the “glycan array binding signal (z-score)” value [22] of the same binder?
Its value is -0.171.
